Laboratory results: paper doi:10.1101/2024.12.03.626679, “Structure of the SMYD2-PARP1 Complex Reveals Both Productive and Allosteric Modes of Peptide Binding” (bioRxiv, 2024)

B1: SMYD[…]A (enzyme)
chain: not shown
notes: SMYD2, human, full length, […], with F184A (target lysine access channel); also called F184A mutant; not shown: 6xHis-SUMO, N-terminal, cleaved
B2: SMYD[…]A/W356A (enzyme)
chain: not shown
notes: also called L351A/W356A mutant; not shown: 6xHis-SUMO, N-terminal, cleaved

Key:
Experiment in all cases: ELISA; PARP1(518-1014), H3 or H4 coated onto wells (10 mM HEPES pH 7.5, 0.1 M KCl, 3 mM MgCl2), blocked with 1% BSA; SMYD2 proteins added at different concentrations, detected with anti-SMYD2 antibody; four-parameter logistic fit
Settings in all cases: both partners purified
Histone H4 = target: T1, Histone H4 (UniProt P62805)
T1 construct: Histone H4

[1] = target: T2, Human PARP1 (residues 518-1014) (human, UniProt P09874 fragment)
T2 construct: also called PARP1(518-1014); PARP1 protein; not shown: 6xHis-SUMO, N-terminal, cleaved
T2 sequence (P09874 518-1014): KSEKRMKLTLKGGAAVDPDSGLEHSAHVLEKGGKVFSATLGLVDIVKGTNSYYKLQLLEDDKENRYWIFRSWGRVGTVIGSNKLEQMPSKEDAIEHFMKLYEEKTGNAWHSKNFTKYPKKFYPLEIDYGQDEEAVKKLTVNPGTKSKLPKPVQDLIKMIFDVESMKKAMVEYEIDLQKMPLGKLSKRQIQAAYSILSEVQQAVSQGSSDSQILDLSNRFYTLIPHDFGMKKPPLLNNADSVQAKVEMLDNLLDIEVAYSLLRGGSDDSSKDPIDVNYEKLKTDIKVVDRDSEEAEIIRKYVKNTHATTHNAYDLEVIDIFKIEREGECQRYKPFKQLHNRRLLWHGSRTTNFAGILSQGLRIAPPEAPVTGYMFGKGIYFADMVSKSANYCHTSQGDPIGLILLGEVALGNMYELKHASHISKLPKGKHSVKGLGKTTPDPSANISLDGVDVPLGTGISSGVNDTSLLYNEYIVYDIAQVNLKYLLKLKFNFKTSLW

Histone H3 = Histone H3 (UniProt P68431)

| EC50 (Histone H4) [nM] | EC50 [1] [nM] | EC50 (Histone H3) [nM] | Binder |
| --- | --- | --- | --- |
| 95 | 85 | 85 | B1 |
| 33 | 53 | 23 | B2 |
